In article PMC6643034:
Results are given in words; binding and its absence hold for the method and conditions named. For some of these results: Tags and fused reporters may be left off the sequences shown.

Tests used:
Test in all cases: BLI; cross-binding screen on OctetRed; evasin held on a nickel-coated biosensor through its C-terminal His tag; each human chemokine at 300 nM; both purified
[1] = molecular target: P1080_IXORI (Ixodes ricinus)
[2] = molecular target: P942_IXORI (Ixodes ricinus)
[3] = molecular target: P1124_IXORI (Ixodes ricinus)
[4] = molecular target: P1090_IXORI (Ixodes ricinus)
[5] = molecular target: T1, P1172_IXORI (Ixodes ricinus) (UniProt V5I2G9)
T1 sequence: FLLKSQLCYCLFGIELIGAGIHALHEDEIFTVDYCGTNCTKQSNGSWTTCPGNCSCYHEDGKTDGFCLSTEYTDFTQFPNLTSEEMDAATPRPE

[6] = molecular target: P1100_IXORI (Ixodes ricinus)
[7] = molecular target: T2, EVA3_RHISA (Rhipicephalus sanguineus) (UniProt P0C8E8)
T2 sequence: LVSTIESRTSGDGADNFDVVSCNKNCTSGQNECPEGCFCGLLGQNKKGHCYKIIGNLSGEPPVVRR

[8] = molecular target: P1086_IXORI (Ixodes ricinus)
[9] = molecular target: P1078_IXORI (Ixodes ricinus)
[10] = molecular target: T3, P1142_AMBCA (Amblyomma cajennense)
T3 sequence: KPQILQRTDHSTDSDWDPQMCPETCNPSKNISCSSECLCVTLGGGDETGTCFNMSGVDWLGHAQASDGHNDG

[11] = molecular target: T4, P1126_AMBCA (Amblyomma cajennense)
T4 sequence: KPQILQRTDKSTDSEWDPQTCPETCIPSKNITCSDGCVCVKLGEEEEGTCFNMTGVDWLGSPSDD

Measured: binding

B1: CCL16 (ligand, UniProt O15467 24-120)
chain: QPKVPEWVNTPSTCCLKYYEKVLPRRLVVGYRKALNCHLPAIIFVTKRNREVCTNPNDDWVQEYIKDPNLPLLPTRNLSTVKIITAKNGQPQLLNSQ
not listed: [10] | [11]
no binding (tested: 300 nM): all other assays above

B2: CCL18 (ligand, UniProt P55774 21-89)
chain: AQVGTNKELCCLVYTSWQIPQKFIVDYSETSPQCPKPGVILLTKRGRQICADPNKKWVQKYISDLKLNA
no binding (tested: 300 nM): all assays above

B3: CCL22 (ligand, UniProt O00626 25-93)
chain: GPYGANMEDSVCCRDYVRYRLPLRVVKHFYWTSDSCPRPGVVLLTFRDKEICADPRVPWVKMILNKLSQ
no binding (tested: 300 nM): all assays above

B4: CCL24 (ligand, UniProt O00175 27-119)
chain: VVIPSPCCMFFVSKRIPENRVVSYQLSSRSTCLKAGVIFTTKKGQQFCGDPKQEWVQRYMKNLDAKQKKASPRARAVAVKGPVQRYPGNQTTC
no binding (tested: 300 nM): all assays above

B5: CCL27 (ligand, UniProt Q9Y4X3 25-112)
chain: FLLPPSTACCTQLYRKPLSDKLLRKVIQVELQEADGDCHLQAFVLHLAQRSICIHPQNPSLSQWFEHQERKLHGTLPKLNFGMLRKMG
no binding (tested: 300 nM): all assays above

B6: XCL1 (ligand, UniProt P47992 22-114)
chain: VGSEVSDKRTCVSLTTQRLPVSRIKTYTITEGSLRAVIFITKRGLKVCADPQATWVRDVVRSMDRKSNTRNNMIQTKPTGTQQSTNTAVTLTG
not listed: [8]
no binding (tested: 300 nM): all other assays above

B7: CXCL9 (ligand, UniProt Q07325 23-125)
chain: TPVVRKGRCSCISTNQGTIHLQSLKDLKQFAPSPSCEKIEIIATLKNGVQTCLNPDSADVKELIKKWEKQVSQKKKQKNGKKHQKKKVLKVRKSQRSRQKKTT
no binding (tested: 300 nM): [2] | [10] | [4] | [5] | [7] | [9]

B8: CXCL14 (ligand, UniProt O95715 35-111)
chain: SKCKCSRKGPKIRYSDVKKLEMKPKYPHCEEKMVIITTKSVSRYRGQEHCLHPKLQSTKRFIKWYNAWNEKRRVYEE
not listed: [6]
no binding (tested: 300 nM): all other assays above

B9: CCL1 (ligand, UniProt P22362 24-96)
chain: KSMQVPFSRCCFSFAEQEIPLRAILCYRNTSSICSNEGLIFKLKRGKEACALDTVGWVQRHRKMLRHCPSKRK
no binding (tested: 300 nM): all assays above

B10: CCL3L1 (ligand, UniProt P16619 24-93)
chain: APLAADTPTACCFSYTSRQIPQNFIADYFETSSQCSKPSVIFLTKRGRQVCADPSEEWVQKYVSDLELSA
no binding (tested: 300 nM): all assays above

B11: CCL4L1 (ligand, UniProt Q8NHW4 24-92)
chain: APMGSDPPTACCFSYTARKLPRNFVVDYYETSSLCSQPAVVFQTKRGKQVCADPSESWVQEYVYDLELN
no binding (tested: 300 nM): all assays above
